# In all, about 2,900 compounds were measured (“IRF Lucia reporter activity, fold change vs agonist alone”: median about 0.9, highest 2% from about 2.8 on). Some of the results follow.
# Legend:
# RAW-Dual [1] = experiment: IRF Lucia reporter activity, fold change vs agonist alone; cytotoxicity flag (confluency mask): not cytotoxic; higher = enhanced IRF activity
# Outline: (§1)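 After 50 nL of library stock was delivered by pin tool to RAW-Dual macrophages (50,000 cells/well, DMEM, 384-well plates), a PRR agonist was added 1 h later and the plates were kept at 37 °C, 5% CO2. Twenty hours later, IRF was read from supernatant by QuantiLuc luminescence and NF-κB by QuantiBlue absorbance at 620 nm. Reporter activity is stated as fold change over agonist-alone wells. Wells with IncuCyte confluency under 70% of agonist controls in both mask sets were counted as cytotoxic.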
# RAW-Dual [2] = experiment: IRF Lucia reporter activity, fold change vs agonist alone; higher = enhanced IRF activity; conditions: library stock concentration (final ~1000-fold dilution): 10 mM; cytotoxicity flag (confluency mask): not cytotoxic; agonist: MPLA (TLR4) […]
# Outline: as §1
# RAW-Dual [3] = experiment: IRF Lucia reporter activity, fold change vs agonist alone; cytotoxicity flag (confluency mask): cytotoxic (confluency <70% of control); higher = enhanced IRF activity
# Outline: as §1
# [4] = agonist: 3'3'-cGAMP (STING) 10 ug/mL
smiles,measurement,setting,value
CC(=O)Cc1cc(=O)c2c(C)cc(O)c(C3OC(CO)C(O)C(O)C3O)c2o1 (stereo not drawn) (library stock concentration (final ~1000-fold dilution): 10 mM),IRF Lucia reporter activity,RAW-Dual [1]; [4],1
same,IRF Lucia reporter activity,RAW-Dual [1]; agonist: LPS (TLR4) 0.1 ug/mL,0.692
COc1cc2ncnc(Sc3nnc(C)s3)c2cc1OC,IRF Lucia reporter activity,RAW-Dual [2],0.0442
COc1cc2ncnc(Sc3nnc(C)s3)c2cc1OC (library stock concentration (final ~1000-fold dilution): 10 mM),IRF Lucia reporter activity,RAW-Dual [1]; [4],0.126
same,IRF Lucia reporter activity,RAW-Dual [1]; agonist: LPS (TLR4) 0.1 ug/mL,0.0246
CCC1(c2cnc[nH]2)Cc2ccccc2C1,IRF Lucia reporter activity,RAW-Dual [2],0.963
CCC1(c2cnc[nH]2)Cc2ccccc2C1 (library stock concentration (final ~1000-fold dilution): 10 mM),IRF Lucia reporter activity,RAW-Dual [1]; [4],1.09
same,IRF Lucia reporter activity,RAW-Dual [1]; agonist: LPS (TLR4) 0.1 ug/mL,1.05
CC(N)c1ccc(C(=O)Nc2ccnc3[nH]ccc23)cc1.Cl.Cl (stereo not drawn) (library stock concentration (final ~1000-fold dilution): 10 mM),IRF Lucia reporter activity,RAW-Dual [3]; [4],0.0164
same,IRF Lucia reporter activity,RAW-Dual [3]; agonist: LPS (TLR4) 0.1 ug/mL,0.0342
COc1c(C)c(C(=O)c2ccc(N)c(C(=O)O)c2)n2ccccc12 (library stock concentration (final ~1000-fold dilution): 10 mM),IRF Lucia reporter activity,RAW-Dual [1]; [4],1.1
same,IRF Lucia reporter activity,RAW-Dual [1]; agonist: LPS (TLR4) 0.1 ug/mL,0.916
COc1c(C)c(C(=O)c2ccc(N)c(C(=O)O)c2)n2ccccc12,IRF Lucia reporter activity,RAW-Dual [2],1.04
Cc1c(C(=O)Nc2ccc(Oc3ccnc4[nH]cc(-c5ccccc5)c34)c(F)c2)c(=O)n(-c2ccc(F)cc2)n1C (library stock concentration (final ~1000-fold dilution): 10 mM),IRF Lucia reporter activity,RAW-Dual [1]; [4],0.0577
same,IRF Lucia reporter activity,RAW-Dual [1]; agonist: LPS (TLR4) 0.1 ug/mL,0.255
O=C1O[C@H]([C@@H](O)CO)C(O)=C1OP(=O)(O)O (library stock concentration (final ~1000-fold dilution): 10 mM water),IRF Lucia reporter activity,RAW-Dual [1]; [4],1.27
same,IRF Lucia reporter activity,RAW-Dual [1]; agonist: LPS (TLR4) 0.1 ug/mL,0.819
COc1nccc(-c2c(-c3ccc(F)cc3)ncn2C2CCC(O)CC2)n1 (stereo not drawn) (library stock concentration (final ~1000-fold dilution): 10 mM),IRF Lucia reporter activity,RAW-Dual [1]; [4],0.777
same,IRF Lucia reporter activity,RAW-Dual [1]; agonist: LPS (TLR4) 0.1 ug/mL,0.775
CCCc1cc(C)[nH]c(=O)c1CNC(=O)c1cc(-c2ccc(N3CCN(C(C)C)CC3)nc2)cc2c1cnn2C(C)C (library stock concentration (final ~1000-fold dilution): 10 mM),IRF Lucia reporter activity,RAW-Dual [1]; [4],0.971
same,IRF Lucia reporter activity,RAW-Dual [1]; agonist: LPS (TLR4) 0.1 ug/mL,0.971
CCCc1cc(C)[nH]c(=O)c1CNC(=O)c1cc(-c2ccc(N3CCN(C(C)C)CC3)nc2)cc2c1cnn2C(C)C,IRF Lucia reporter activity,RAW-Dual [2],1.25
CCCC(NC1CCc2cc(F)cc(F)c2C1)C(=O)Nc1cn(C(C)(C)CNCC(C)(C)C)cn1 (stereo not drawn) (library stock concentration (final ~1000-fold dilution): 10 mM),IRF Lucia reporter activity,RAW-Dual [1]; [4],0.398
same,IRF Lucia reporter activity,RAW-Dual [1]; agonist: LPS (TLR4) 0.1 ug/mL,2.4
CCC(C)CCCCC(=O)NC(CCN)C(=O)NC(C(=O)NC(CCN)C(=O)NC1CCNC(=O)C(C(C)O)NC(=O)C(CCN)NC(=O)C(CCN)NC(=O)C(CC(C)C)NC(=O)C(Cc2ccccc2)NC(=O)C(CCN)NC1=O)C(C)O (stereo not drawn) (library stock concentration (final ~1000-fold dilution): 15 uM),IRF Lucia reporter activity,RAW-Dual [1]; [4],0.927
same,IRF Lucia reporter activity,RAW-Dual [1]; agonist: LPS (TLR4) 0.1 ug/mL,0.03
NC(=O)c1ccc(N(C(N)=O)c2c(F)cccc2F)nc1-c1ccc(F)cc1F,IRF Lucia reporter activity,RAW-Dual [2],1.13
NC(=O)c1ccc(N(C(N)=O)c2c(F)cccc2F)nc1-c1ccc(F)cc1F (library stock concentration (final ~1000-fold dilution): 10 mM),IRF Lucia reporter activity,RAW-Dual [1]; [4],1.02
same,IRF Lucia reporter activity,RAW-Dual [1]; agonist: LPS (TLR4) 0.1 ug/mL,0.768
COC(=O)C1=C(C)NC(C)=C(C(=O)OCCN(C)Cc2ccccc2)C1c1cccc([N+](=O)[O-])c1.Cl (stereo not drawn),IRF Lucia reporter activity,RAW-Dual [2],1.12
COC(=O)C1=C(C)NC(C)=C(C(=O)OCCN(C)Cc2ccccc2)C1c1cccc([N+](=O)[O-])c1.Cl (stereo not drawn) (library stock concentration (final ~1000-fold dilution): 10 mM),IRF Lucia reporter activity,RAW-Dual [1]; [4],0.3
same,IRF Lucia reporter activity,RAW-Dual [1]; agonist: LPS (TLR4) 0.1 ug/mL,1.4
Nc1c(CC(=O)O)cccc1C(=O)c1ccccc1 (library stock concentration (final ~1000-fold dilution): 10 mM),IRF Lucia reporter activity,RAW-Dual [1]; [4],1.16
same,IRF Lucia reporter activity,RAW-Dual [1]; agonist: LPS (TLR4) 0.1 ug/mL,1.26
Nc1c(CC(=O)O)cccc1C(=O)c1ccccc1,IRF Lucia reporter activity,RAW-Dual [2],1.17
CC(C)(C)C(=O)Nc1ccc2c(c1)C(=O)C(=O)c1ccccc1-2 (library stock concentration (final ~1000-fold dilution): 10 mM),IRF Lucia reporter activity,RAW-Dual [1]; [4],0.0753
same,IRF Lucia reporter activity,RAW-Dual [1]; agonist: LPS (TLR4) 0.1 ug/mL,0.0184
CC(C)(C)C(=O)Nc1ccc2c(c1)C(=O)C(=O)c1ccccc1-2,IRF Lucia reporter activity,RAW-Dual [2],0.0245
Nc1nc(NC2CC2)c2ncn(C3C=CC(CO)C3)c2n1 (stereo not drawn) (library stock concentration (final ~1000-fold dilution): 10 mM),IRF Lucia reporter activity,RAW-Dual [1]; [4],0.94
same,IRF Lucia reporter activity,RAW-Dual [1]; agonist: LPS (TLR4) 0.1 ug/mL,1.16
Nc1nc(NC2CC2)c2ncn(C3C=CC(CO)C3)c2n1 (stereo not drawn),IRF Lucia reporter activity,RAW-Dual [2],1.06
COc1cccc(C=Nc2cccc(C(=O)O)c2C)c1O (library stock concentration (final ~1000-fold dilution): 1 mM),IRF Lucia reporter activity,RAW-Dual [1]; [4],1.13
same,IRF Lucia reporter activity,RAW-Dual [1]; agonist: LPS (TLR4) 0.1 ug/mL,0.845

# From the supplement of paper PMC10037445
